From the supplement of paper PMC8728848
The list shows a part of the results.

Key:
Assay in all cases: glycan array binding signal (z-score within array); higher = stronger binding
Details in all cases: glycan notation: IUPAC condensed, linker removed
[1] = target: Gal(b1-4)GlcNAc(b1-3)Gal(b1-3)GlcNAc
Summary of the method: (§1)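 From the Consortium for Functional Glycomics database, 3228 arrays were curated, keeping only those whose protein sequence was available. Binding is given as a within-array Z-score averaged across arrays sharing a protein sequence and across linkers. Negative Z-scores can be read as non-binding.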

[2] = target: Gal(b1-4)GlcNAc(b1-3)Gal(b1-4)Glc
Summary of the method: as §1

[3] = target: Gal(b1-4)GlcNAc(b1-3)Gal(b1-4)GlcNAc
Summary of the method: as §1

[4] = target: Gal(b1-4)GlcNAc(b1-3)Gal(b1-4)GlcNAc(b1-2)Man(a1-3)[Gal(b1-4)GlcNAc(b1-3)Gal(b1-4)GlcNAc(b1-2)Man(a1-6)]Man(b1-4)GlcNAc(b1-4)GlcNAc
Summary of the method: as §1

[5] = target: Gal(b1-4)GlcNAc(b1-3)Gal(b1-4)GlcNAc(b1-2)Man(a1-3)[Gal(b1-4)GlcNAc(b1-3)Gal(b1-4)GlcNAc(b1-2)Man(a1-6)]Man(b1-4)GlcNAc(b1-4)[Fuc(a1-6)]GlcNAc
Summary of the method: as §1

[6] = target: Gal(b1-4)GlcNAc(b1-3)Gal(b1-4)GlcNAc(b1-2)[Gal(b1-4)GlcNAc(b1-3)Gal(b1-4)GlcNAc(b1-6)]Man(a1-6)[Gal(b1-4)GlcNAc(b1-3)Gal(b1-4)GlcNAc(b1-2)Man(a1-3)]Man(b1-4)GlcNAc(b1-4)GlcNAc
Summary of the method: as §1

[7] = target: Gal(b1-4)GlcNAc(b1-3)Gal(b1-4)GlcNAc(b1-2)[Gal(b1-4)GlcNAc(b1-3)Gal(b1-4)GlcNAc(b1-6)]Man(a1-6)[Gal(b1-4)GlcNAc(b1-3)Gal(b1-4)GlcNAc(b1-2)Man(a1-3)]Man(b1-4)GlcNAc(b1-4)[Fuc(a1-6)]GlcNAc
Summary of the method: as §1

[8] = target: Gal(b1-4)GlcNAc(b1-3)Gal(b1-4)GlcNAc(b1-3)Gal(b1-4)GlcNAc
Summary of the method: as §1

[9] = target: Gal(b1-4)GlcNAc(b1-3)Gal(b1-4)GlcNAc(b1-3)Gal(b1-4)GlcNAc(b1-2)Man(a1-3)[Gal(b1-4)GlcNAc(b1-3)Gal(b1-4)GlcNAc(b1-3)Gal(b1-4)GlcNAc(b1-2)Man(a1-6)]Man(b1-4)GlcNAc(b1-4)GlcNAc
Summary of the method: as §1

[10] = target: Gal(b1-4)GlcNAc(b1-3)Gal(b1-4)GlcNAc(b1-3)Gal(b1-4)GlcNAc(b1-2)Man(a1-3)[Gal(b1-4)GlcNAc(b1-3)Gal(b1-4)GlcNAc(b1-3)Gal(b1-4)GlcNAc(b1-2)Man(a1-6)]Man(b1-4)GlcNAc(b1-4)[Fuc(a1-6)]GlcNAc
Summary of the method: as §1

[11] = target: Gal(b1-4)GlcNAc(b1-3)Gal(b1-4)GlcNAc(b1-3)Gal(b1-4)GlcNAc(b1-2)[Gal(b1-4)GlcNAc(b1-3)Gal(b1-4)GlcNAc(b1-3)Gal(b1-4)GlcNAc(b1-6)]Man(a1-6)[Gal(b1-4)GlcNAc(b1-3)Gal(b1-4)GlcNAc(b1-3)Gal(b1-4)GlcNAc(b1-2)Man(a1-3)]Man(b1-4)GlcNAc(b1-4)[Fuc(a1-6)]GlcNAc
Summary of the method: as §1

[12] = target: Gal(b1-4)GlcNAc(b1-3)Gal(b1-4)GlcNAc(b1-3)Gal(b1-4)GlcNAc(b1-3)Gal(b1-4)GlcNAc(b1-2)Man(a1-3)[Gal(b1-4)GlcNAc(b1-3)Gal(b1-4)GlcNAc(b1-3)Gal(b1-4)GlcNAc(b1-3)Gal(b1-4)GlcNAc(b1-2)Man(a1-6)]Man(b1-4)GlcNAc(b1-4)GlcNAc
Summary of the method: as §1

[13] = target: Gal(b1-4)GlcNAc(b1-3)Gal(b1-4)GlcNAc(b1-3)Gal(b1-4)GlcNAc(b1-3)Gal(b1-4)GlcNAc(b1-2)Man(a1-3)[Gal(b1-4)GlcNAc(b1-3)Gal(b1-4)GlcNAc(b1-3)Gal(b1-4)GlcNAc(b1-3)Gal(b1-4)GlcNAc(b1-2)Man(a1-6)]Man(b1-4)GlcNAc(b1-4)[Fuc(a1-6)]GlcNAc
Summary of the method: as §1

[14] = target: Gal(b1-4)GlcNAc(b1-3)Gal(b1-4)GlcNAc(b1-3)Gal(b1-4)GlcNAc(b1-3)Gal(b1-4)GlcNAc(b1-2)[Gal(b1-4)GlcNAc(b1-3)Gal(b1-4)GlcNAc(b1-3)Gal(b1-4)GlcNAc(b1-3)Gal(b1-4)GlcNAc(b1-6)]Man(a1-6)[Gal(b1-4)GlcNAc(b1-3)Gal(b1-4)GlcNAc(b1-3)Gal(b1-4)GlcNAc(b1-3)Gal(b1-4)GlcNAc(b1-2)Man(a1-3)]Man(b1-4)GlcNAc(b1-4)[Fuc(a1-6)]GlcNAc
Summary of the method: as §1

[15] = target: Gal(b1-4)GlcNAc(b1-3)Gal(b1-4)GlcNAc(b1-3)Gal(b1-4)GlcNAc(b1-3)Gal(b1-4)GlcNAc(b1-3)Gal(b1-4)GlcNAc(b1-2)Man(a1-3)[Gal(b1-4)GlcNAc(b1-3)Gal(b1-4)GlcNAc(b1-3)Gal(b1-4)GlcNAc(b1-3)Gal(b1-4)GlcNAc(b1-3)Gal(b1-4)GlcNAc(b1-2)Man(a1-6)]Man(b1-4)GlcNAc(b1-4)GlcNAc
Summary of the method: as §1

[16] = target: Gal(b1-4)GlcNAc(b1-3)Gal(b1-4)GlcNAc(b1-3)Gal(b1-4)GlcNAc(b1-3)Gal(b1-4)GlcNAc(b1-3)Gal(b1-4)GlcNAc(b1-2)Man(a1-3)[Gal(b1-4)GlcNAc(b1-3)Gal(b1-4)GlcNAc(b1-3)Gal(b1-4)GlcNAc(b1-3)Gal(b1-4)GlcNAc(b1-3)Gal(b1-4)GlcNAc(b1-2)Man(a1-6)]Man(b1-4)GlcNAc(b1-4)[Fuc(a1-6)]GlcNAc
Summary of the method: as §1

[17] = target: Gal(b1-4)GlcNAc(b1-3)Gal(b1-4)GlcNAc(b1-3)Gal(b1-4)GlcNAc(b1-3)Gal(b1-4)GlcNAc(b1-3)Gal(b1-4)GlcNAc(b1-2)[Gal(b1-4)GlcNAc(b1-3)Gal(b1-4)GlcNAc(b1-3)Gal(b1-4)GlcNAc(b1-3)Gal(b1-4)GlcNAc(b1-3)Gal(b1-4)GlcNAc(b1-6)]Man(a1-6)[Gal(b1-4)GlcNAc(b1-3)Gal(b1-4)GlcNAc(b1-3)Gal(b1-4)GlcNAc(b1-3)Gal(b1-4)GlcNAc(b1-3)Gal(b1-4)GlcNAc(b1-2)Man(a1-3)]Man(b1-4)GlcNAc(b1-4)[Fuc(a1-6)]GlcNAc
Summary of the method: as §1

[18] = target: Gal(b1-4)GlcNAc(b1-3)Gal(b1-4)GlcNAc(b1-3)Gal(b1-4)GlcNAc(b1-3)Gal(b1-4)GlcNAc(b1-3)Gal(b1-4)GlcNAc(b1-3)Gal(b1-4)GlcNAc(b1-2)Man(a1-3)[Gal(b1-4)GlcNAc(b1-3)Gal(b1-4)GlcNAc(b1-3)Gal(b1-4)GlcNAc(b1-3)Gal(b1-4)GlcNAc(b1-3)Gal(b1-4)GlcNAc(b1-3)Gal(b1-4)GlcNAc(b1-2)Man(a1-6)]Man(b1-4)GlcNAc(b1-4)GlcNAc
Summary of the method: as §1

[19] = target: Gal(b1-4)GlcNAc(b1-3)Gal(b1-4)GlcNAc(b1-3)GalNAc
Summary of the method: as §1

B1: MGL1 (Mus musculus), P49300 (protein)
chain: MIYENLQNSRIEEKTQEPGKAPSQSFLWRILSWTHLLLFSLGLSLLLLVVVSVIGSQNSQLRRDLGTLRATLDNTTSKIKAEFQSLDSRADSFEKGISSLKVDVEDHRQELQAGRDLSQKVTSLESTVEKREQALKTDLSDLTDHVQQLRKDLKALTCQLANLKNNGSEVACCPLHWTEHEGSCYWFSESEKSWPEADKYCRLENSHLVVVNSLEEQNFLQNRLANVVSWIGLTDQNGPWRWVDGTDFEKGFKNWAPLQPDNWFGHGLGGGEDCAHITTGGPWNDDVCQRTFRWICEMKLAKES
In the case of B1, the “glycan array binding signal (z-score)” value [1] is reported as 0.058, the “glycan array binding signal (z-score)” value [2] is reported as 0.046 and the “glycan array binding signal (z-score)” value [3] is reported as 0.348. For the same binder, the “glycan array binding signal (z-score)” value [4] was 2.62, the “glycan array binding signal (z-score)” value [5] was 1.8 and the “glycan array binding signal (z-score)” value [6] was 1.75. For the same binder, the “glycan array binding signal (z-score)” value [7] was 1.32, the “glycan array binding signal (z-score)” value [8] was 0.02 and the “glycan array binding signal (z-score)” value [9] was 3.01. The “glycan array binding signal (z-score)” value [10] was 1.69, the “glycan array binding signal (z-score)” value [11] was 1.8 and the “glycan array binding signal (z-score)” value [12] was 1.67. For the same binder, the “glycan array binding signal (z-score)” value [13] was 1.92, the “glycan array binding signal (z-score)” value [14] was 1.69 and the “glycan array binding signal (z-score)” value [15] was 2.31. For the same binder, the “glycan array binding signal (z-score)” value [16] was 0.968, the “glycan array binding signal (z-score)” value [17] was 1.12 and the “glycan array binding signal (z-score)” value [18] was -0.247. For the same binder, the “glycan array binding signal (z-score)” value [19] was 1.94.
